B1: PSA2_HUMAN_6 (peptide)
chain: GGMAERGYSFSLTTF
B2: PTN1_HUMAN_20 (peptide)
chain: SGSWAAIYQDIRHEA
B3: PTK7_HUMAN_960 (peptide)
chain: KDVYNSEYYHFRQAW
B4: PRP4B_HUMAN_849 (peptide)
chain: ADNDITPYLVSRFYR
B5: PR15A_HUMAN_512 (peptide)
chain: CPFRVAIYVPGEKPP
B6: PTN18_HUMAN_426 (peptide)
chain: SPAGSGAYEDVAGGA
B7: PTN6_HUMAN_64_YA (peptide)
chain: SGDFADLYGGEKFAT
B8: PTN6_HUMAN_377 (peptide)
chain: MQRAYGPYSVTNCGE
B9: PROF1_HUMAN_129 (peptide)
chain: GLINKKCYEMASHLR
B10: PTK7_HUMAN_960_YA (peptide)
chain: KDVANSEYAHFRQAW
B11: PRMT5_HUMAN_307 (peptide)
chain: FAKGYEDYLQSPLQP
B12: PTK7_HUMAN_961 (peptide)
chain: DVYNSEYYHFRQAWV
B13: PP2AA_HUMAN_307 (peptide)
chain: VTRRTPDYFLGGGGG
B14: PR15A_HUMAN_262 (peptide)
chain: SDPRSWEYRSGEASE
B15: PTEN_HUMAN_46 (peptide)
chain: AERLEGVYRNNIDDV
B16: PTK6_HUMAN_114 (peptide)
chain: SEKPSADYVLSVRDT
B17: PTK2_HUMAN_441 (peptide)
chain: GDVHQGIYMSPENPA
B18: PTPRC_HUMAN_681 (peptide)
chain: FNQNKNRYVDILPYD

The other results are listed elsewhere or left out. Cut-off read from the data, not from the text of the source: active = 3.2 or more and inactive = the rest. The signal is at background level for most entries.
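Note: displayed peptides selected on beads carrying the immobilized SH2 domain, with library peptides lacking any tyrosine serving as negative controls.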

In one assay the target is SHP2 C-SH2 domain E139D. Put plainly: enrichment score (SH2-bound / input frequency) (ratio); bacterial display of known human phosphotyrosine sites (pTyr-Var adds point mutants) read by sequencing; higher = stronger binding; tyrosines were phosphorylated by kinases first. Conditions: peptide library: Human pTyr.
Take B1: the enrichment score is inactive: 1.27.
As for B2, the enrichment score was inactive: 0.946.
As to B3, the enrichment score is inactive: 1.04.
On the same count and under the same terms, the value for B4 was inactive: 1.67; that for B5 was inactive: 1.62; that for B6 was inactive: 0.587.
Still for that read-out and setting: the value for B7 was inactive: 0.611; that for B8 was inactive: 0.864; that for B9 was inactive: 1.44.
Turning to B10, the enrichment score was inactive: 0.784.
Consider B11, for which the enrichment score was inactive: 1.84.
The same measure, in the same setting: the value for B12 was inactive: 1.3; that for B13 was inactive: 1.53.
For the molecule B14, the enrichment score was inactive: 0.739.
For the molecule B15, the enrichment score was inactive: 0.929.
Consider B16, for which the enrichment score is inactive: 0.743.
Take B17: the enrichment score is inactive: 0.499.
Consider B18, for which the enrichment score is inactive: 2.65.

A further assay has as its target SHP2 C-SH2 domain wild-type. The assay is described as above. The following applies: peptide library: Human pTyr.
For the molecule B1, the enrichment score was inactive: 1.16.
B2: the enrichment score is inactive: 1.05.
With B3, the enrichment score is inactive: 0.792.
With B4, the enrichment score is inactive: 1.24.
Take B5: the enrichment score was inactive: 1.5.
In the case of B6, the enrichment score was inactive: 0.465.
With B7, the enrichment score was inactive: 0.449.
Consider B8, for which the enrichment score was inactive: 0.778.
In the case of B9, the enrichment score was inactive: 1.34.
With B10, the enrichment score was inactive: 0.731.
For the molecule B11, the enrichment score is inactive: 0.528.
With B12, the enrichment score is inactive: 1.26.
Turning to B13, the enrichment score was inactive: 0.96.
For the molecule B14, the enrichment score is inactive: 0.625.
For the molecule B15, the enrichment score is inactive: 0.753.
Consider B16, for which the enrichment score is inactive: 0.556.
Take B17: the enrichment score is inactive: 0.508.
In the case of B18, the enrichment score is active: 8.19.

The target of the next assay is SHP2 N-SH2 domain L43F. The assay is described as above. The following applies: peptide library: Human pTyr.
For the molecule B1, the enrichment score was inactive: 1.11.
Same read-out and setting: as for B2, the figure is inactive: 0.965.
As to B3, the enrichment score is inactive: 1.02.
On to B4, for which the enrichment score was inactive: 0.915.
B5: the enrichment score is inactive: 1.22.
Consider B6, for which the enrichment score is inactive: 0.587.
The same measure, in the same setting: the value for B7 was inactive: 0.41; that for B8 was inactive: 0.82.
For the molecule B9, the enrichment score is inactive: 1.21.
For the molecule B10, the enrichment score was inactive: 0.948.
With B11, the enrichment score is inactive: 1.1.
Consider B12, for which the enrichment score is inactive: 0.981.
Same read-out and setting: as for B13, the figure is inactive: 0.676; as for B14, inactive: 0.774.
Consider B15, for which the enrichment score was inactive: 0.767.
With B16, the enrichment score is inactive: 0.781.
On to B17, for which the enrichment score is inactive: 0.638.
Consider B18, for which the enrichment score is inactive: 1.25.

In the next assay the target is SHP2 N-SH2 domain T42A. The description is as above. The following applies: peptide library: Human pTyr.
B1: the enrichment score was inactive: 1.18.
For the molecule B2, the enrichment score is inactive: 0.929.
Take B3: the enrichment score is inactive: 1.06.
On to B4, for which the enrichment score was inactive: 0.83.
For B5, the enrichment score was inactive: 1.4.
For the molecule B6, the enrichment score was inactive: 0.534.
For the molecule B7, the enrichment score was inactive: 0.564.
As to B8, the enrichment score was inactive: 0.794.
In the case of B9, the enrichment score was inactive: 1.24.
On the same count and under the same terms, the value for B10 was inactive: 0.797.
In the case of B11, the enrichment score was inactive: 0.568.
On to B12, for which the enrichment score is inactive: 1.15.
The same measure, in the same setting: the value for B13 was inactive: 1.04; that for B14 was inactive: 0.591.
Still for that read-out and setting: as for B15, the figure is inactive: 0.843; as for B16, inactive: 0.557; as for B17, inactive: 0.435.
Take B18: the enrichment score is inactive: 2.22.

Another assay has as its target SHP2 N-SH2 domain T52S. The description is as above. The following applies: peptide library: Human pTyr.
As to B1, the enrichment score is inactive: 1.27.
In the case of B2, the enrichment score is inactive: 1.44.
On to B3, for which the enrichment score was inactive: 0.901.
As for B4, the enrichment score was inactive: 1.04.
Regarding B5, the enrichment score is inactive: 1.66.
As for B6, the enrichment score is inactive: 0.632.
Same read-out and setting: the value for B7 was inactive: 0.594; that for B8 was inactive: 0.739.
Take B9: the enrichment score is inactive: 1.35.
With B10, the enrichment score was inactive: 1.04.
Regarding B11, the enrichment score was inactive: 0.526.
The same measure, in the same setting: the value for B12 was inactive: 0.981.
B13: the enrichment score is inactive: 0.909.
As for B14, the enrichment score was inactive: 0.704.
Regarding B15, the enrichment score was inactive: 0.6.
As for B16, the enrichment score is inactive: 0.682.
With B17, the enrichment score is inactive: 0.527.
On the same count and under the same terms, the value for B18 was inactive: 1.57.

The next assay addresses SHP2 N-SH2 domain wild-type. Described as above. Conditions: peptide library: Human pTyr.
As for B1, the enrichment score is inactive: 1.45.
Same read-out and setting: the value for B2 was inactive: 0.906; that for B3 was inactive: 0.797.
Still for that read-out and setting: the value for B4 was inactive: 1.44; that for B5 was inactive: 1.91.
Turning to B6, the enrichment score was inactive: 0.643.
Consider B7, for which the enrichment score was inactive: 0.4.
As for B8, the enrichment score is inactive: 0.836.
Still for that read-out and setting: as for B9, the figure is inactive: 1.32; as for B10, inactive: 0.771.
For the molecule B11, the enrichment score is inactive: 0.604.
Take B12: the enrichment score is inactive: 1.33.
Still for that read-out and setting: the value for B13 was inactive: 1.06.
In the case of B14, the enrichment score was inactive: 0.616.
For B15, the enrichment score is inactive: 0.772.
In the case of B16, the enrichment score is inactive: 0.905.
In the case of B17, the enrichment score is inactive: 0.522.
B18: the enrichment score was inactive: 1.17.

(Values after the supplement of paper PMC10369915.)
